# In PubChem BioAssay AID504339 (National Center for Advancing Translational Sciences (NCATS), 2011):
# In all, about 390,000 compounds went through this assay and about 17,000 (4.4%) were called active. This list was built around the results that the source calls inconclusive (neither active nor inactive); the mix of calls is not that of the screen. Calls come from the whole dose curve; as a rule, active = well fitted inhibition curve with a large enough effect; inconclusive = small, poorly fitted or top-dose-only effect; inactive = no such curve, though single readings can be large or run the other way. A potency beside an inconclusive call is a rough fit, not a confirmed value.
# Molecular target: Lysine-specific demethylase 4A (Homo sapiens) (UniProt O75164)
# Sequence of UniProt O75164 (O75164 whole entry, looked up, the tested form may be a part): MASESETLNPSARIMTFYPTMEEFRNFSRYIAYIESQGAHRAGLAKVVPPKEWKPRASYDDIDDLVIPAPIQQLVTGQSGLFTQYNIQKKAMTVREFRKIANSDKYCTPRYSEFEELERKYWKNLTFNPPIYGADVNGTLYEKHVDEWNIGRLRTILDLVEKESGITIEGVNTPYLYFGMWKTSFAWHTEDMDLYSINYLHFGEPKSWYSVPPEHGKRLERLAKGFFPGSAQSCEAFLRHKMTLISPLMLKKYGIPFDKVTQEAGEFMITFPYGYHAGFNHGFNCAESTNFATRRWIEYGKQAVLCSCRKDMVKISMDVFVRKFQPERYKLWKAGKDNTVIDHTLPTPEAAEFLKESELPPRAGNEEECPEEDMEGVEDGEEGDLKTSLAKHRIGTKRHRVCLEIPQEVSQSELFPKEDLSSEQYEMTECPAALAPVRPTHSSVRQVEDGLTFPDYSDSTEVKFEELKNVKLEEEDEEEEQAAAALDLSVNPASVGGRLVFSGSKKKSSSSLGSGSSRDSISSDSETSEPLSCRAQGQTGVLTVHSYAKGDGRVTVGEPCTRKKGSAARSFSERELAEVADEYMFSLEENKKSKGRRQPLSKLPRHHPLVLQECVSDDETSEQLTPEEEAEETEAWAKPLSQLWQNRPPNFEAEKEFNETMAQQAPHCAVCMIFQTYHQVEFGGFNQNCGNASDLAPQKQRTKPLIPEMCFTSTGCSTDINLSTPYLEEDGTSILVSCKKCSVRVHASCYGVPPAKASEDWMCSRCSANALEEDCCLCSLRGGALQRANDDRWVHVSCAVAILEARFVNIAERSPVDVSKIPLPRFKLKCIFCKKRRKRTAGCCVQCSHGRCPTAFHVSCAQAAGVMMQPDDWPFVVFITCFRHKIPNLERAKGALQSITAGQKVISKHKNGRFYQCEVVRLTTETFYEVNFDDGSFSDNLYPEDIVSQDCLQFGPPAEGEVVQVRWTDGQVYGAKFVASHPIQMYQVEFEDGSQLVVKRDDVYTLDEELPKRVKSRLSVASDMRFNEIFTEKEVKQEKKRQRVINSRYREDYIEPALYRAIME
# Assay: qHTS Assay for Inhibitors of JMJD2A-Tudor Domain; note: nearly all actives have a fitted effect of over 50% in size
# Conditions: AlphaScreen JMJD2A-Tudor / H3K4me3 peptide binding; activity change, negative = inhibition: at 114 µM (top of the series)
# % is set by controls: 0 for no effect and ±100 for the full control effect; potency is the fitted concentration of half-maximal effect; tags give direction and shape of the fitted curve.
SMILES,Potency,"activity change, negative = inhibition"
COc1ccc(-c2nc(-c3cccs3)c(-c3cccs3)[nH]2)cc1O,"inconclusive: 25.1 µM [inhibitor, partial curve]",
COc1ccc(OC)c(-n2c(-c3cc(-c4ccco4)[nH]n3)n[nH]c2=S)c1,"inconclusive: 14.1 µM [inhibitor, partial curve, poor fit]",
Cc1nc2cc(C(=O)O)ccc2n1C1CCCCC1,inactive,
COc1ccccc1/C=C1/SC(=O)N(CCC(=O)Nc2ccc(S(=O)(=O)Nc3nccs3)cc2)C1=O,"inconclusive: 63.1 µM [inhibitor, partial curve]",
COc1cccc(-c2nc(CS(=O)(=O)CC(=O)NCCc3cc(OC)ccc3OC)c(C)o2)c1,"inconclusive: 5.62 µM [inhibitor, full curve, poor fit]",
O=C(CCN1Cc2ccccc2C1)c1ccc2c(c1)OCCO2,"inconclusive: 3.55 µM [inhibitor, single point]",
Cc1ccc2c(c1)/C(=C/c1ccco1)C(=O)N2,"inconclusive: 63.1 µM [inhibitor, partial curve, poor fit]",
CCC(OC(=O)c1nsc(Cl)c1Cl)C(=O)NCC1CCCO1 (centres undefined),inactive,
COc1ccc(S(=O)(=O)N2CCCCCC2)cc1C(=O)Nc1ccc(C(=O)N(C)C)cc1,inactive,
CCN(CC)CCCNC(=O)c1cc(Nc2ccc(OC)cc2OC)nc2ccccc12,"inconclusive: 56.2 µM [inhibitor, partial curve, poor fit]",
CCN1CCc2c(sc(-n3cccc3)c2C(CCC(C)C)NC(=O)NCCC(=O)OC)C1 (centres undefined),"inconclusive: 50.1 µM [inhibitor, partial curve]",
S=c1[nH]nc(CCc2nc3ccccc3[nH]2)n1-c1cccc(Cl)c1,active: 44.7 µM,
COc1ccc(-n2cc(-c3ccccc3)c3c(N4CCOCC4)ncnc32)cc1,,inconclusive: -46.7% [inhibitor]
CC[N+](CC)(CC)CCOc1ccc(/C=C/c2ccccc2)cc1,"inconclusive: 31.6 µM [inhibitor, full curve]",
COc1ccc(OC)c(C2=NS(=O)(=O)N(C)C(C(=O)N3CCC4(CC3)OCCO4)=C2)c1,"inconclusive: 39.8 µM [inhibitor, single point]",
Cc1cc(C(=O)CN2C(=O)c3cccc(N)c3C2=O)c(C)n1Cc1cccs1,"inconclusive: 7.08 µM [inhibitor, single point]",
O=C(C1=C(O)C(=O)N(CCOCCO)C1c1ccccn1)c1cccs1 (centres undefined),"inconclusive: 79.4 µM [inhibitor, partial curve]",
CCOc1ccc(S(=O)(=O)NCc2cccn2Cc2cccc(C)c2)cc1,inactive,
COc1cc(-c2nnc(NC(=O)C3=COCCO3)o2)cc(OC)c1OC,"inconclusive: 89.1 µM [inhibitor, single point]",
CCc1n[nH]c(=S)n1/N=C/c1ccccn1,active: 7.94 µM,
C=CCn1c(-c2cccc3ccccc23)n[nH]c1=S,inactive,
CCOc1cc(/C=C2\C(=O)N(c3nc(-c4ccc(Br)cc4)cs3)N=C2c2ccccc2)ccc1O,"inconclusive: 56.2 µM [inhibitor, partial curve]",
Cc1cc(-c2csc(N)n2)c(C)n1C,"inconclusive: 35.5 µM [inhibitor, partial curve]",

SMILES,Potency,"activity change, negative = inhibition"
CCOCc1[nH]c(=S)[nH]c(=O)c1Cc1ccc(OCC)cc1,,inactive: -6.77% [at 11.4 µM]
COc1ccc(OC)c(NC(=O)CCN2CCN(C)CC2)c1,inactive,
OC(CNCc1ccco1)Cn1c2ccccc2c2ccccc21 (centres undefined),"inconclusive: 44.7 µM [inhibitor, partial curve]",
COc1cccc(N(CC(=O)NCCN2CCOCC2)S(=O)(=O)c2ccccc2)c1,"inconclusive: 39.8 µM [inhibitor, single point]",
CCCN1C(=O)C2(C(C(=O)c3ccc(C)o3)=C(O)C(=O)N2CCCOC)c2ccccc21 (centres undefined),inactive,
CCN(CC)S(=O)(=O)c1ccc2c(c1)N(CC(=O)NCCCN1CCN(c3cc(C)ccc3C)CC1)C(=O)CO2,inactive,
Cc1nc2sc(C)c(C)c2c(=O)o1,inactive,
CCC(C)NS(=O)(=O)c1ccc(OCC(=O)N2CCC(C)CC2)cc1 (centres undefined),inactive,
CCN1CCN(c2cc(C)c3cc(NC(=O)/C=C/c4ccc(OCCC(C)C)cc4)ccc3n2)CC1,"inconclusive: 39.8 µM [inhibitor, partial curve]",
CN(C)C(=S)NC1CCS(=O)(=O)C1 (centres undefined),,inactive: -7.52% [at 11.4 µM]
O=C(CSc1nccn1-c1ccc(F)cc1)Nc1cccc2ccccc12,active: 28.2 µM,
CCOc1cccc2sc(N(CCN(C)C)C(=O)c3ccc4ccccc4c3)nc12,"inconclusive: 39.8 µM [inhibitor, partial curve]",
COc1ccc(N2CCN(CC(O)COc3ccc(F)cc3)CC2)cc1 (centres undefined),"inconclusive: 44.7 µM [inhibitor, full curve, poor fit]",
Cc1nn(-c2nnc(C)c(=O)[nH]2)c(C)c1SCC(=O)Nc1ccc(F)cc1,active: 31.6 µM,
N#CC1=C(N)NC(SCC(=O)Nc2ccc(Br)cc2)=C(C#N)C12CCCCC2,"inconclusive: 50.1 µM [inhibitor, partial curve]",
Nc1ccccc1NC(=O)CCn1c(=S)[nH]c2ccccc2c1=O,inactive,
COC(=O)CN1C(=O)C(O)(CC(=O)c2ccc(Cl)cc2)c2ccccc21 (centres undefined),"inconclusive: 56.2 µM [inhibitor, partial curve]",
O=C(Nc1ccc(S(=O)(=O)Nc2nccs2)cc1)c1ccc(=O)[nH]c1,"inconclusive: 25.1 µM [inhibitor, full curve, poor fit]",
CC(C)(C)c1nnc(N/N=C/c2ccccc2O)n(N)c1=O,active: 22.4 µM,
COc1cc(C(=O)NC2CCN(C)CC2)ccc1Nc1ncc2c(n1)N(C1CCCC1)CCC(=O)N2C(C)C,"inconclusive: 56.2 µM [inhibitor, partial curve]",
O=C(Nc1nnc(-c2cccs2)o1)c1cccc(C(F)(F)F)c1,"inconclusive: 63.1 µM [inhibitor, partial curve]",
CCOC(=O)N1CCc2c(sc(NCc3cccc(F)c3)c2C(=O)Nc2ccc(OCC)cc2)C1,"inconclusive: 14.1 µM [inhibitor, partial curve, poor fit]",
COc1ccc(Cl)cc1NC(=O)CN(C)C(=O)c1cccc(S(=O)(=O)N2CCN(C)CC2)c1,inactive,

SMILES,Potency,"activity change, negative = inhibition"
O=C(CNC(=O)c1ccc(Br)o1)Nc1ncccc1O,"inconclusive: 31.6 µM [inhibitor, partial curve]",
O=C(C[C@H]1C[C@H](C(=O)N2CCOCC2)[C@@]2(CCC3CCCC3)c3[nH]c4ccc(Cl)cc4c3CCN2C1=O)NCCCn1ccnc1,"inconclusive: 25.1 µM [inhibitor, partial curve]",
CCN(CC)CCC(c1ccc(OC)cc1)c1c(O)cc(OC)cc1OC (centres undefined),"inconclusive: 89.1 µM [inhibitor, partial curve]",
O=C(NC(=S)Nc1ccc(N2CCCCC2)cc1)c1cccs1,active: 35.5 µM,
CCCn1c2ccccc2c2cnn(CC(=O)NCCCN3CCN(c4ccccc4)CC3)c(=O)c21,"inconclusive: 50.1 µM [inhibitor, partial curve]",
O=C(NC1CC1)c1cc(OCC(F)(F)F)ccc1OCC(F)(F)F,inactive,
Cc1ccc(OCc2cc(=O)n3cc(C)sc3n2)c(NC(=O)c2ccco2)c1,"inconclusive: 50.1 µM [inhibitor, partial curve]",
COc1cc(C(=O)Nc2c(C(=O)Nc3ccccc3F)oc3ccccc23)cc(OC)c1OC,inactive,
O=[N+]([O-])c1ccc2c(c1)[nH]c(=S)n2-c1ccccc1,"inconclusive: 50.1 µM [inhibitor, partial curve]",
CCc1nnc(NC(=O)CC(=O)Nc2ccccc2C(=O)O)s1,"inconclusive: 56.2 µM [inhibitor, partial curve]",
COc1ccc(Cn2c(C(=O)O)c(CNCc3ccc(C)o3)c3ccc(OC)cc32)cc1,"inconclusive: 56.2 µM [inhibitor, partial curve]",
O=C(Nc1cccc(NC(=O)c2cc([N+](=O)[O-])ccc2Cl)n1)c1cc([N+](=O)[O-])ccc1Cl,"inconclusive: 56.2 µM [inhibitor, partial curve]",
[S-]C(=Nc1ccc(Cl)cc1)N[n+]1ccccc1,inactive,
S=c1[nH]nc(-c2cc(-c3ccccc3)n[nH]2)n1/N=C/C=C/c1ccccc1,"inconclusive: 35.5 µM [inhibitor, full curve, poor fit]",
O=C(NCCN1CCOCC1)C(=O)NCC1CCCO1 (centres undefined),inactive,
Cc1cccc(NC(=O)Nc2ccc(S(N)(=O)=O)cc2)c1,"inconclusive: 89.1 µM [inhibitor, single point]",
COCc1[nH]c(=S)c(C#N)cc1C(=O)OC,active: 22.4 µM,
COc1cc(C(=O)Nc2cc(C)nn2-c2ccccc2)cc(OC)c1OC,"inconclusive: 0.708 µM [inhibitor, full curve]",
Brc1ccc(C2Nc3cccc4cccc(c34)N2)o1,"inconclusive: 39.8 µM [inhibitor, partial curve]",
Oc1ccc(/C=N/Nc2ccc(C(F)(F)F)cn2)cc1O,"inconclusive: 63.1 µM [inhibitor, partial curve, poor fit]",
CCOC=C1C(=O)N(C(C)=O)c2cc(OC)c(OC)cc21,"inconclusive: 3.16 µM [inhibitor, partial curve]",
CCn1c(CSCc2ccc(Cl)cc2)n[nH]c1=S,active: 56.2 µM,
Nc1nnc2c(n1)CCCC2,active: 22.4 µM,
